# Test results published in the supplement of paper PMC3334620.
# In all, about 33,000 sequences were measured (“E-score (-0.5 to 0.5)”: median about -0.016, highest 2% from about 0.32 on). The list shows a part of the results.
# Molecular target: T1, Stp1 (UniProt B3LFK1)
# T1 sequence: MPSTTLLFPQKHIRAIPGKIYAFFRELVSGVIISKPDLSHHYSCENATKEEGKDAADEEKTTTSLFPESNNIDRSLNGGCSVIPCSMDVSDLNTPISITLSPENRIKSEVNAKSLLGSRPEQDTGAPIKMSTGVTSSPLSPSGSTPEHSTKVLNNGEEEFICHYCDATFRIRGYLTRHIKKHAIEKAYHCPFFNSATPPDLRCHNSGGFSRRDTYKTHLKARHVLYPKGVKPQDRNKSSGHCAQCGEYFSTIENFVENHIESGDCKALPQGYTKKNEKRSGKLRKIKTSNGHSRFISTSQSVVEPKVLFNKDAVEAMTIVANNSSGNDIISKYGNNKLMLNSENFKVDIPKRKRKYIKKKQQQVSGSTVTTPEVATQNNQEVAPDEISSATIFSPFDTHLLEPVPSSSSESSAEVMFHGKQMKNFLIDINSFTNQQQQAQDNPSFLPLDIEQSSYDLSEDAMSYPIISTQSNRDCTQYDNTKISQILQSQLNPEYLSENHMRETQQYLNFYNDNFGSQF
# Assay: PBM E-score (8-mer binding enrichment) (E-score (-0.5 to 0.5)); higher = stronger / more preferred TF binding; most listed sequences are background and not binding sites
# Details: protein concentration: 200 nM; construct: GST-full length
# Procedure, shortened: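 Using PURExpress in vitro transcription/translation, GST-tagged yeast transcription factors were made in full-length or DNA-binding-domain form. These were applied at about 100-200 nM to double-stranded universal all-10-mer Agilent arrays, and bound protein was detected with fluorescent anti-GST. Scans were normalised with masliner before the Universal PBM Analysis Suite assigned E-scores to ungapped eight-base words pooled with their reverse complements.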
row,Sequence,PBM E-score
1,CCGTCAGA,-0.253
2,CCGCCGGC,0.165
3,AGCTGCTG,0.0686
4,ATGTTGTA,0.0794
5,AGCACTAT,-0.121
6,CTATGTAA,0.143
7,ATCGAATG,-0.124
8,CGATCCAA,-0.061
9,AGGCCTGA,-0.193
10,AGTGGCTG,0.0775
11,GAGGAGTA,-0.172
12,GCAACGTA,0.0395
13,CACACTTA,0.0508
14,AACGGCCT,0.151
15,CCTAAGTA,0.0806
16,AGTTAGAA,-0.0258
17,CCGGTGTA,-0.0866
18,CCCTTAAG,-0.0477
19,AGTCTATC,-0.0873
20,CTCGTGGC,0.0434
21,CCCCGATA,-0.29
22,GGTGAACC,0.135

row,Sequence,PBM E-score
1,AATAACGC,0.0286
2,GCTTATCA,-0.0889
3,TATATTGA,0.0549
4,ACAACATC,-0.00797
5,ATCCGATC,0.0298
6,CTAAAAGA,0.0334
7,GCTGAGTA,-0.067
8,ATATACCA,-0.076
9,ATTAATGG,0.191
10,ATACCGAC,-0.117
11,ATTAACTA,0.0707
12,CCAACTGG,-0.00063
13,GGCTAACA,0.0133
14,ACTCGTAC,-0.0899
15,CGTATGGA,0.117
16,CGACCAAA,0.183
17,GTTCTCCA,-0.188
18,AACTAGTT,0.0227
19,AAATATAC,0.0576
20,GGATCATA,0.0577
21,CCATATAG,0.0156
22,TAGGTGGA,-0.21

row,Sequence,PBM E-score
1,ACCGGGCA,-0.123
2,ATGCCTCG,0.412
3,AAAGCTGC,0.0495
4,CATGCAGC,0.0394
5,AGAGAGGG,-0.227
6,GGAGTGCC,0.27
7,CATAAGAG,0.0766
8,AGAAGCTC,-0.277
9,AACGGTGG,-0.26
10,ACGATGAC,0.0649
11,CGCGTCCG,-0.0671
12,GCCCGACA,-0.101
13,AACCGATG,0.016
14,CCAAGATC,-0.0906
15,ATCTTCCC,-0.145
16,AAATGTCT,-0.057
17,AATGAGCC,0.0958
18,GTCAATCA,-0.0685
19,CGCTCGTC,-0.0772
20,ACTGCACG,0.033
21,CCCCGAGA,-0.193
22,GCCTACAA,0.14

row,Sequence,PBM E-score
1,AACACTTG,-0.12
2,TCGAGGAA,-0.119
3,GTTCTAAA,0.111
4,CGGAGTTA,-0.0286
5,CGCTCCAA,-0.0696
6,ACGTTTCC,-0.153
7,CGTCCGCA,0.0445
8,GATGATTA,0.113
9,TCGAAAAA,0.156
10,AGGCATGA,-0.0157
11,ACTCCTCC,-0.213
12,AATGCTAT,-0.0333
13,GGGCTAGA,-0.142
14,AAACCGTC,-0.0591
15,ACGTAAAC,-0.0813
16,TACTTCGA,0.211
17,ACAACTAG,-0.0839
18,GGTTCCAA,0.112
19,AACAGCGC,0.0288
20,TCTCCTAA,-0.132
